Measured values taken from PubChem BioAssay AID1468 (National Center for Advancing Translational Sciences (NCATS), 2008).
Values joined by “and” are separate entries in the source; they are usually repeats but may differ in a detail not shown here. Equal entries are not always repeated. In all, about 280,000 compounds went through this assay and about 1,100 (0.39%) were called active. This list was built around the results that the source calls inconclusive (neither active nor inactive); the mix of calls is not that of the screen. The call rests on the fitted dose curve; in most records, active means well fitted inhibition curve with a large enough effect; inconclusive means small, poorly fitted or top-dose-only effect, or effect the other way; inactive means flat fitted curve, though single readings scatter. A potency beside an inconclusive call is a rough fit, not a confirmed value.

Target: Microtubule-associated protein tau (Homo sapiens) (UniProt P10636)
Experiment: qHTS for Inhibitors of Tau Fibril Formation, Fluorescence Polarization; further: nearly all actives have a fitted effect of over 55% in size
Conditions: K18 P301L tau heparin fibrillization, Alexa594 FP, 6 h; series mostly up to 57.7 µM
Procedure, shortened: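 Read-out: fluorescence polarization of Alexa 594-labeled tau (0.24 uM), 555 nm excitation, 632 nm emission. Mixtures held 15 uM unlabeled K18 P301L, compound and 20 uM heparin, pH 7 acetate buffer, incubated 6 hr at 37 C.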
Potency means the concentration at half of the fitted maximal effect; tags describe the fitted curve by direction and shape.

Chain of UniProt P10636 (P10636 whole entry, looked up): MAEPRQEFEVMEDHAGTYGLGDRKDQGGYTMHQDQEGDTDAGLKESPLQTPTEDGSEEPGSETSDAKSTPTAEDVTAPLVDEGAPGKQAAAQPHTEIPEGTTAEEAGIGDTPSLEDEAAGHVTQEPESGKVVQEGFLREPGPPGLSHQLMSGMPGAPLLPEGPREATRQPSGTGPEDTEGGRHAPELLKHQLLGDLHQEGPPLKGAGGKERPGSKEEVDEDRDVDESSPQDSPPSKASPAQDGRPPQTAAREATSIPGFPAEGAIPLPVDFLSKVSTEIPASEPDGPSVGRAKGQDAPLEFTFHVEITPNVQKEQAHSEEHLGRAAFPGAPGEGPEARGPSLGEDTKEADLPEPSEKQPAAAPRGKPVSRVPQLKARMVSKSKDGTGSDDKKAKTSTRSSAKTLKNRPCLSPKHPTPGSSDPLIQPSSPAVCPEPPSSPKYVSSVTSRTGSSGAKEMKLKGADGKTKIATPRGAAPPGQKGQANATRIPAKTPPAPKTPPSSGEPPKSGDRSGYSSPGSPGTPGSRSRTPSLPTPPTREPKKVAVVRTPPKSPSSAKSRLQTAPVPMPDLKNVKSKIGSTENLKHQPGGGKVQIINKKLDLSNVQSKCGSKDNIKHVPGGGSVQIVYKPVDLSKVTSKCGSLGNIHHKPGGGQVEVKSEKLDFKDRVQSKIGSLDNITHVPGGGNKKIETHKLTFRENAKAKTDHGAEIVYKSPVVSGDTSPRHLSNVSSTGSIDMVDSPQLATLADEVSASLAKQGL

SMILES	Potency
CC1(C)SC(=S)N(NC(=O)Nc2cccc3ccccc23)C1N(O)C(=O)Nc1ccccc1 (centres undefined)	inconclusive: 35.5 µM [inhibitor, single point]
Cc1nc2ccc(N=NC3=C(O)CCCC3=O)cc2s1	inactive
CCn1c2ccccc2c2cc(NC(=O)c3ccc(C)c([N+](=O)[O-])c3)ccc21	inconclusive: 39.8 µM [activator, single point]
c1ccc2c3c([nH]c2c1)-c1[nH]ncc1CC3	inconclusive: 35.5 µM [activator, single point]
N#C/C(=C\c1ccco1)C(=O)Nc1cccc2ncccc12	inactive
CCCNC(=O)CSc1nc2nc(C)c(Cc3ccccc3Cl)c(C)n2n1	inactive
COC(=O)c1ccc(CSc2nnc(Nc3cccc(OC)c3)s2)o1	inconclusive: 39.8 µM [activator, single point]
CCOC(=O)CC1Sc2ccccc2NC1=S (centres undefined)	inactive
CCOc1ccccc1-c1c2cc(O)c(=O)cc-2oc2cc(O)c(O)cc12	active: 14.1 µM
COc1ccc(/C=N/Nc2ccccc2C(=O)O)cc1Cn1cc([N+](=O)[O-])cn1	inactive
O=C(CC(SCc1ccco1)c1ccc(O)cc1)c1cccs1 (centres undefined)	inactive
CC1CC1C(=O)Nc1nc(-c2ccccn2)cs1 (centres undefined)	inactive
CC(NC(=O)CCCn1c(=O)c2cccn2c2cccnc21)c1ccccc1 (centres undefined)	inactive
CCOc1ccc(-c2nc(C#N)c(NCCCOC)o2)cc1	inconclusive: 6.31 µM [activator, partial curve, poor fit]
COc1ccc(C(C)C)cc1S(=O)(=O)NCCc1c(C)[nH]c2ccc(C)cc12	inconclusive: 8.91 µM [activator, partial curve]
CCOC(=O)C(=O)Nc1sc(C(=O)N(CC)CC)c(C)c1C#N	inactive
CCC(Sc1nncn2c1cc1occc12)C(=O)Nc1ccc(C)c(Cl)c1 (centres undefined)	inconclusive: 15.8 µM [inhibitor, partial curve]
c1ccc2[nH]c(-c3ccncc3)nc2c1	inactive
Cc1c(NC(=O)/C(C#N)=C/c2ccc(-c3cc(Cl)ccc3Cl)o2)c(=O)n(-c2ccccc2)n1C	inconclusive: 39.8 µM [activator, single point]
O=C(c1cc2ncc(Br)cn2n1)N1CCCCC1	inconclusive: 3.98 µM [inhibitor, single point]
Cc1c2cnn(CC(=O)Nc3cccc(C(F)(F)F)c3)c(=O)c2c(C)n1Cc1ccccc1Cl	inconclusive: 39.8 µM [inhibitor, single point]
COc1cc(C(=O)Nc2ccc3nc(SCc4ccccc4)sc3c2)cc(OC)c1OC	inconclusive: 8.91 µM [inhibitor, partial curve]
Cc1cccc(OCC(=O)N(Cc2sccc2C)C2CCS(=O)(=O)C2)c1 (centres undefined)	inconclusive: 0.141 µM [inhibitor, full curve, poor fit]

SMILES	Potency
N=C(N)S/C=C\C(=O)O	inconclusive: 31.6 µM [inhibitor, partial curve] and inconclusive: 20 µM [inhibitor, partial curve]
Cc1cccc(N=Nc2ccc(O)c3ncccc23)c1	inconclusive: 1.58 µM [activator, partial curve, poor fit]
Cc1ccc(CNC(=O)c2c3c(nc4ccccc24)C(=O)N(C2CCCCC2)C3)cc1	inactive
CCN(CC)c1ccc(N=Cc2c(C)[nH]c3ccccc23)cc1	inconclusive: 10 µM [inhibitor, partial curve]
CCOC(=O)c1sc(NC(=O)c2sccc2C)cc1C	inactive
Cn1c(=O)c2ncn(CC(=O)NCCOc3ccc(C(C)(C)C)cc3)c2n(C)c1=O	inactive
CCCN(C(=O)CCc1nc(-c2ccccc2F)no1)c1ccc(CC)cc1	inactive
Cc1ccc(NC(=O)CC2SC(=O)NC2=O)cc1 (centres undefined)	inconclusive: 15.8 µM [inhibitor, single point]
O=C(CSc1ncn[nH]1)Nc1nc(-c2cccc([N+](=O)[O-])c2)cs1	inconclusive: 44.7 µM [inhibitor, single point]
CN(CC(=O)Nc1cccc(C(F)(F)F)c1)S(=O)(=O)c1ccc2[nH]c3c(c2c1)CCCC3	inconclusive: 28.2 µM [inhibitor, single point]
CC(=O)Nc1ccc(Sc2ncnc3scc(-c4ccccc4)c23)cc1	inconclusive: 31.6 µM [inhibitor, single point]
O=C1NC(=Nc2cccc(Cl)c2)SC1Cc1cccc(Cl)c1Cl (centres undefined)	inconclusive: 28.2 µM [inhibitor, single point]
COc1ccc(-c2csc(NC(=O)CN3C(=O)CCC3=O)n2)cc1	inactive
COc1cccc(/C=N/NC(=O)CNC(=O)CCc2ccccc2)c1O	inactive
Cc1ccc(Nc2c(-c3ccc(N4CCOCC4)cc3)nc3ncccn23)cc1	inconclusive: 20 µM [activator, partial curve]
CCOC(=O)c1cc(S(=O)(=O)N2CCN(c3ccc(OC)cc3)CC2)[nH]n1	inactive
C=CCc1c(C)nc(-c2ccccc2)nc1N/N=C/c1ccncc1	inconclusive: 10 µM [inhibitor, partial curve]
Cc1cc(C)cc(N2C(=O)N(CC(=O)c3ccc(Br)cc3)c3ccccc3S2(=O)=O)c1	inconclusive: 28.2 µM [inhibitor, single point]
O=S(=O)(NCc1cccc(Br)c1)c1ccc(-c2cc(C(F)(F)F)on2)s1	inconclusive: 25.1 µM [inhibitor, single point]
COc1ccc(CC(=O)Nc2oc(-c3ccccc3)c(-c3ccccc3)c2C#N)cc1OC	inconclusive: 35.5 µM [inhibitor, single point]
COc1ccc(C(=O)Nc2ccc3nc(SCC(=O)N4CCCc5ccccc54)sc3c2)cc1	inconclusive: 25.1 µM [inhibitor, partial curve]
CN1C(=O)C(C)(C)c2cc(S(=O)(=O)NCc3ccc(C(=O)Nc4ccc(Cl)cc4)cc3)ccc21	inconclusive: 7.94 µM [inhibitor, partial curve]
CC(CN1CCN(C)CC1)OC(=O)c1ccc(F)cc1 (centres undefined)	inconclusive: 8.91 µM [inhibitor, single point]

SMILES	Potency
S=C(NCc1ccc(Cl)cc1)Nc1ccc(Cl)cc1Cl	inconclusive: 39.8 µM [inhibitor, partial curve]
Cc1cc(C)cc(OCC(=O)Nc2ccc(S(=O)(=O)Nc3onc(C)c3C)cc2)c1	inactive
CC(=O)c1cccc(NC(=O)CC2S/C(=N/N=C/c3ccccc3)NC2=O)c1 (centres undefined)	inactive
CCOC(=O)c1nn(-c2ccc(Cl)cc2Cl)c(=N)c(C#N)c1C	inconclusive: 12.6 µM [inhibitor, single point]
CCN(CC)S(=O)(=O)c1cccc(-c2nn(-c3ccccc3)cc2/C=C(\C#N)C(=O)NCc2ccco2)c1	inconclusive: 8.91 µM [inhibitor, partial curve]
CC(C)(C)NCC(O)COc1c(F)cc(Br)cc1F (centres undefined)	inconclusive: 22.4 µM [inhibitor, single point]
CCOc1ccc(-c2nc(SCC(=O)NCCOC)c(-c3ccc(OC)c(OC)c3)[nH]2)cc1	inactive
CCc1ccc(-n2nc(C)c3c(C(=O)Nc4cc(OC)cc(OC)c4)cc(C)nc32)cc1	inconclusive: 39.8 µM [inhibitor, single point]
COc1cc(/C=N/NC(=O)COc2cc(C)cc(C)c2)ccc1OS(=O)(=O)c1ccc(C)cc1	inconclusive: 3.16 µM [inhibitor, full curve]
COc1ccc(CNC(=O)Cn2c(SCC(=O)Nc3ccc(C)c(C)c3)nc3ccccc32)cc1	inactive
N#CC(C#N)=C1C=CC=CN1/C(=C\c1ccco1)C(=O)c1ccc(-c2ccccc2)cc1	inconclusive: 7.94 µM [inhibitor, full curve]
COc1ccc(C(C#N)C2(C)OCCO2)cc1OC (centres undefined)	inactive
CN(C(=O)CSc1nc(C2CC2)nc2ccccc12)c1nc(-c2ccccc2)cs1	inconclusive: 39.8 µM [inhibitor, single point]
COC(=O)c1cc(S(=O)(=O)N2CCN(c3cccc(C)c3)C(C)C2)cn1C (centres undefined)	inconclusive: 7.08 µM [activator, partial curve, poor fit]
CCOC(=O)Cc1csc(NC(=O)CSc2nc(N)c3c(C)c(C)sc3n2)n1	inconclusive: 17.8 µM [inhibitor, single point]
c1ccc(-n2ncc3c(NCc4ccc5c(c4)OCO5)ncnc32)cc1	inconclusive: 11.2 µM [inhibitor, partial curve, poor fit]
CCCN1CCN(S(=O)(=O)c2ccc(OC)c(Br)c2)CC1	inactive
CC(=O)c1cccc(NC(=O)Cn2nc(C)n3cccc3c2=O)c1	inconclusive: 39.8 µM [inhibitor, single point]
O=C1NC(Nc2nc3ccccc3s2)(C(F)(F)F)C(=O)N1C1CCCCC1 (centres undefined)	inconclusive: 20 µM [inhibitor, single point]
CCOc1ccc(NC(=O)CNc2ccc(C)cc2Cl)cc1	inconclusive: 10 µM [activator, partial curve]
CCOC(=O)C1=C(c2ccccc2)NC(SCC(=O)Nc2ccccc2C)=C(C#N)C1c1ccco1 (centres undefined)	inconclusive: 7.94 µM [inhibitor, full curve, poor fit]
C/C(=N\NC(=O)CCCCCNC(=O)c1ccccc1)c1ccccc1O	inactive
O=C(CSC1=NCCS1)NC(c1ccccc1)c1ccccc1	inconclusive: 25.1 µM [inhibitor, partial curve]
